Measurements: article PMC5893904
No constants are given. Whether binding was seen depends on the method and setting. For part of these data: In cells and extracts the contact can be indirect. Some binding calls cover weakened binding; strength is not graded here. For part of these data: Where a sequence is shown, tags or fusion partners need not be part of it.

Sequences of proteins named here, by UniProt entry; tags and fusion partners are left off.
UniProt O04090: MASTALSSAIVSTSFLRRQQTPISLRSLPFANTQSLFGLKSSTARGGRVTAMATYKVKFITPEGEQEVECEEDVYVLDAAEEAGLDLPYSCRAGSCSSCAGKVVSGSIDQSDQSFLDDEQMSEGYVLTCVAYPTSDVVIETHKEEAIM
UniProt P16972: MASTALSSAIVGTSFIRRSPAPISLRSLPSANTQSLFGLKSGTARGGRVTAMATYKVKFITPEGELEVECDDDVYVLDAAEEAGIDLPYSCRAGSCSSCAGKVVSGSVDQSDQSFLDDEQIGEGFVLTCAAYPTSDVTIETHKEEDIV
UniProt Q9S7H1: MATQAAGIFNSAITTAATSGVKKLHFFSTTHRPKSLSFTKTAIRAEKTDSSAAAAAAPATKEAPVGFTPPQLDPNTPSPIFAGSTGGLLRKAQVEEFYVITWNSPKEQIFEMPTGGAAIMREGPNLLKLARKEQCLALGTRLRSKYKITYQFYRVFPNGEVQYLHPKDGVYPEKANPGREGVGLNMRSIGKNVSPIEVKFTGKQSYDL
UniProt Q9S714: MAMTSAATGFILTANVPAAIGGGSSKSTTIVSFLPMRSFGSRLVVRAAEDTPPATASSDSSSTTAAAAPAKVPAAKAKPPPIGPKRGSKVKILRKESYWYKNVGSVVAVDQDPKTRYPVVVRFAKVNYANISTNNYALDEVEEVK
UniProt Q9S831: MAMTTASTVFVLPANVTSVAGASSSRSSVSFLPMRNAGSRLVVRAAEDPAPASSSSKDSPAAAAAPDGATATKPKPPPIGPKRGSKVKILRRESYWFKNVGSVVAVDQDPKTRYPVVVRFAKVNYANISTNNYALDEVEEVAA

T1: FdC1NC, FdC1 with truncated C-terminus (1-145a.a.), yeast two-hybrid bait (Arabidopsis thaliana) (UniProt O23344)
T1 sequence: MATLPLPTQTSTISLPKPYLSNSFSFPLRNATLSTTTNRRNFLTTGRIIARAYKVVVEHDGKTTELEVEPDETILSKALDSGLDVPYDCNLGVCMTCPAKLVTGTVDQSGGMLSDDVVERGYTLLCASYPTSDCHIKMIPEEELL

T2: AtFdC1 (ferredoxin C 1), yeast two-hybrid bait fused with the binding domain (Arabidopsis thaliana) (UniProt O23344)
T2 sequence: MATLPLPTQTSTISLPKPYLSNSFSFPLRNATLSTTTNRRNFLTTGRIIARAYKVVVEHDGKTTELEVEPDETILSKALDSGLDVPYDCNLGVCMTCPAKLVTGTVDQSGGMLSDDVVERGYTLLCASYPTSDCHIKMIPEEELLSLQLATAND

T3: FdC1, full-length coding sequence in pSPYCE-35S (BiFC bait) (Arabidopsis thaliana) (UniProt O23344)
T3 sequence: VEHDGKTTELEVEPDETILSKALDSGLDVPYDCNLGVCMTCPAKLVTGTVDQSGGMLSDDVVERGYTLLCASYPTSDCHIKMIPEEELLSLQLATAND


How the values were obtained:
[1] = biological target: AtFd1 (leaf-type ferredoxin 1), yeast two-hybrid bait fused with the binding domain (Arabidopsis thaliana) (UniProt O04090); test: two-hybrid; Clontech Matchmaker GAL4 system, gold yeast strain; Fds, FdC1 and FdC1NC fused with the binding domain (BD, bait), candidate proteins fused with the active-domain (AD, prey); growth on DDO, TDO and QDO dropout media, 28°C
[2] = biological target: T1, FdC1NC, FdC1 with truncated C-terminus (1-145a.a.), yeast two-hybrid bait (Arabidopsis thaliana); test: as above
[3] = biological target: AtFd2 (leaf-type ferredoxin 2), yeast two-hybrid bait fused with the binding domain (Arabidopsis thaliana) (UniProt P16972); test: as above
[4] = biological target: T2, AtFdC1 (ferredoxin C 1), yeast two-hybrid bait fused with the binding domain (Arabidopsis thaliana); test: as above
[5] = biological target: T3, FdC1, full-length coding sequence in pSPYCE-35S (BiFC bait) (Arabidopsis thaliana); test: split reporter; BiFC in epidermal cells of tobacco leaves after Agrobacterium co-infiltration; FdC1 in pSPYCE-35S (bait), partners in pSPYNE-35S (prey); 48 h darkness; confocal microscopy

Molecule	binding [1]	binding [2]	binding [3]	binding [4]	binding [5]
PsaD1 (subunit D1 of photosystem I), yeast two-hybrid prey fused with the active-domain (from UniProt Q9S7H1 1-208)	binds	binds	binds	binds	
PsaE2 (subunit E2 of photosystem I), yeast two-hybrid prey fused with the active-domain (from UniProt Q9S714 1-145)	binds	binds	binds	binds	
NiR (nitrite reductase), yeast two-hybrid prey fused with the active-domain (enzyme, UniProt Q39161 1-586) MTSFSLTFTSPLLPSSSTKPKRSVLVAAAQTTAPAESTASVDADRLEPRVELKDGFFILKEKFRKGINPQEKVKIEREPMKLFMENGIEELAKKSMEELDSEKSSKDDIDVRLKWLGLFHRRKHQYGKFMMRLKLPNGVTTSAQTRYLASVIRKYGEDGCADVTTRQNWQIRGVVLPDVPEILKGLASVGLTSLQSGMDNVRNPVGNPIAGIDPEEIVDTRPYTNLLSQFITANSQGNPDFTNLPRKWNVCVVGTHDLYEHPHINDLAYMPANKDGRFGFNLLVGGFFSPKRCEEAIPLDAWVPADDVLPLCKAVLEAYRDLGTRGNRQKTRMMWLIDELGVEGFRTEVEKRMPNGKLERGSSEDLVNKQWERRDYFGVNPQKQEGLSFVGLHVPVGRLQADDMDELARLADTYGSGELRLTVEQNIIIPNVETSKTEALLQEPFLKNRFSPEPSILMKGLVACTGSQFCGQAIIETKLRALKVTEEVERLVSVPRPIRMHWTGCPNTCGQVQVADIGFMGCLTRGEEGKPVEGADVYVGGRIGSDSHIGEIYKKGVRVTELVPLVAEILIKEFGAVPREREENED		binds		binds	
FTRA2 (ferredoxin-thioredoxin reductase A2), yeast two-hybrid prey fused with the active-domain (protein, UniProt Q8LBP6 1-184) MTNSYALSPAIIAAVRPPASQDYLVAASLSGRKSINSSSSSIFVPISLSTSYGRSKCAFSISRKNPKSTIRCDIAVKSAASVDADADLSSSTSLETEEDEKAKEKIGARVRVTVPLKVYHVVRVPEVELMGMEGFIKDYVVLWKGKKISANLPFKVQFVKEIEGRGPVKFFTHLKEDEFELIDP		binds		binds	
FTRB (ferredoxin-thioredoxin reductase catalytic chain B), yeast two-hybrid prey fused with the active-domain (protein, UniProt Q9SJ89 1-146) MNLQAVSCSFGFLSSPLGVTPRTSFRRFVIRAKTEPSEKSVEIMRKFSEQYARRSGTYFCVDKGVTSVVIKGLAEHKDSYGAPLCPCRHYDDKAAEVGQGFWNCPCVPMRERKECHCMLFLTPDNDFAGKDQTITSDEIKETTANM		binds		binds	
PGRL1B (PGR5-like protein B), yeast two-hybrid prey fused with the active-domain (protein, UniProt Q8GYC7 1-313) MAFTLTIPRFSAISRKPITCSSSRTQCPAPFTHGRSISLRRRLTLLPLKASTDQSGQVGGEEVDSKILPYCSINKNEKRTIGEMEQEFLQAMQSFYYEGKAIMSNEEFDNLKEELMWEGSSVVMLSSDEQRFLEASMAYVSGNPILSDEEYDKLKMKLKMDGSEIVCEGPRCSLRSKKVYSDLAIDYFKMFLLNVPATVVALGLFFFLDDITGFEITYLLELPEPFSFIFTWFAAVPAIVYLALSLTKLILKDFLILKGPCPNCGTENVSFFGTILSIPNDSNTNNVKCSGCGTEMVYDSGSRLITLPEGGKA		no binding		binds	
LeafFNR1, full-length coding sequence in pSPYNE-35S (BiFC prey) (enzyme, UniProt Q9FKW6 50-360) VTTDTTEAPPVKVVKESKKQEEGIVVNKFKPKNPYTGRCLLNTKITGDDAPGETWHIVFTTEGEVPYREGQSIGVIPEGIDKNGKPHKLRLYSIASSAIGDFGDSKTVSLCVKRLVYTNDGGEIVKGVCSNFLCDLKPGDEAKITGPVGKEMLMPKDPNATIIMLGTGTGIAPFRSFLWKMFFEEHEDYKFNGLAWLFLGVPTSSSLLYKEEFEKMKEKNPDNFRLDFAVSREQTNEKGEKMYIQTRMAEYAEELWELLKKDNTFVYMCGLKGMEKGIDDIMVSLAAKDGIDWLEYKKQLKRSEQWNVEVY					no binding

The next lines start with the values.

binding [1]	binding [2]	binding [3]	binding [4]	binding [5]	Molecule
binds	binds	binds	binds		PsaE1 (subunit E1 of photosystem I), yeast two-hybrid prey fused with the active-domain (from UniProt Q9S831 1-143)
	binds		binds		SiR (sulfite reductase), yeast two-hybrid prey fused with the active-domain (enzyme, UniProt Q9LZ66 1-642) MSSTFRAPAGAATVFTADQKIRLGRLDALRSSHSVFLGRYGRGGVPVPPSASSSSSSPIQAVSTPAKPETATKRSKVEIIKEKSNFIRYPLNEELLTEAPNVNESAVQLIKFHGSYQQYNREERGGRSYSFMLRTKNPSGKVPNQLYLTMDDLADEFGIGTLRLTTRQTFQLHGVLKQNLKTVMSSIIKNMGSTLGACGDLNRNVLAPAAPYVKKDYLFAQETADNIAALLSPQSGFYYDMWVDGEQFMTAEPPEVVKARNDNSHGTNFVDSPEPIYGTQFLPRKFKVAVTVPTDNSVDLLTNDIGVVVVSDENGEPQGFNIYVGGGMGRTHRMESTFARLAEPIGYVPKEDILYAVKAIVVTQREHGRRDDRKYSRMKYLISSWGIEKFRDVVEQYYGKKFEPSRELPEWEFKSYLGWHEQGDGAWFCGLHVDSGRVGGIMKKTLREVIEKYKIDVRITPNQNIVLCDIKTEWKRPITTVLAQAGLLQPEFVDPLNQTAMACPAFPLCPLAITEAERGIPSILKRVRAMFEKVGLDYDESVVIRVTGCPNGCARPYMAELGLVGDGPNSYQVWLGGTPNLTQIARSFMDKVKVHDLEKVCEPLFYHWKLERQTKESFGEYTTRMGFEKLKELIDTYKGVSQ
binds	binds	binds	binds		PsaD2 (subunit D2 of photosystem I), yeast two-hybrid prey fused with the active-domain (protein, UniProt Q9SA56 1-204) MATQAAGIFSPAITTTTSAVKKLHLFSSSHRPKSLSFTKTAIRAEKTESSSAAPAVKEAPVGFTPPQLDPNTPSPIFAGSTGGLLRKAQVEEFYVITWNSPKEQIFEMPTGGAAIMREGPNLLKLARKEQCLALGTRLRSKYKITYQFYRVFPNGEVQYLHPKDGVYPEKANPGREGVGLNMRSIGKNVSPIEVKFTGKQSYDL
	no binding		binds		PGR5, yeast two-hybrid prey fused with the active-domain (protein, UniProt Q9SL05 1-133) MAAASISAIGCNQTLIGTSFYGGWGSSISGEDYQTMLSKTVAPPQQARVSRKAIRAVPMMKNVNEGKGLFAPLVVVTRNLVGKKRFNQLRGKAIALHSQVITEFCKSIGADAKQRQGLIRLAKKNGERLGFLA
				no binding	LeafFNR2, full-length coding sequence in pSPYNE-35S (BiFC prey) (enzyme, UniProt Q8W493 58-369) ITTETDTPTPAKKVEKVSKKNEEGVIVNRYRPKEPYTGKCLLNTKITADDAPGETWHMVFSHQGEIPYREGQSVGVIADGIDKNGKPHKVRLYSIASSALGDLGNSETVSLCVKRLVYTNDQGETVKGVCSNFLCDLAPGSDVKLTGPVGKEMLMPKDPNATVIMLATGTGIAPFRSFLWKMFFEKHDDYKFNGLAWLFLGVPTTSSLLYQEEFDKMKAKAPENFRVDYAISREQANDKGEKMYIQTRMAQYAAELWELLKKDNTFVYMCGLKGMEKGIDDIMVSLAANDGIDWFDYKKQLKKAEQWNVEVY
